In the supplement of paper PMC10338343:
± gives the standard deviation. In all, about 5,500 sequences were measured (“pre-steady-state target cleavage rate”: median about 0.1, highest 2% from about 0.64 on). The entries are a selection whose mix differs from that of the whole data set.

What follows are sequences tested on MIWI (PIWIL1) piRISC loaded with piRNA #2 (30 nt) (assay: pre-steady-state target cleavage rate (min^-1); MIWI and MILI are mouse PIWI proteins and EfPiwi is from a freshwater sponge; tags in brackets are library labels; higher = faster piRNA-guided slicing of the target). Conditions: guide: piRNA #2 5'p-UUAGGUAACCCAGUAGAUCCAGAGGAAUUC; auxiliary factor: 500 nM mouse GTSF1.
Method in brief: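 A transcribed, DNA-blocked target RNA library […] was incubated at 33 °C for 0–8 or 0–960 min with 1 nM active affinity-purified piRISC carrying one synthetic guide, in HEPES–potassium acetate buffer with or without 500 nM GTSF1 partner protein. Uncleaved targets were then sequenced and normalised to depth and to weakly complementary targets. Data from three trials were pooled, with k3 capped at 0.0001 min^-1, and a burst-and-steady-state fit yielded the pre-steady-state cleavage rate.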

Sequence	pre-steady-state target cleavage rate
CUUAACCUCUGGAUCUACAGGGUUACCUAA	0.18 ± 0.019
CUAUUCCUCUGGAUCAUCUGGGUUACCUAA	0.341 ± 0.038
CUUUUCCUCUCGAUCUUCUGGGUUACCUAA	0.63 ± 0.051
GAAUUCCUCUGUAUCUACUGGGUUACCUAA	0.355 ± 0.049
CUUAAGCUCUGGAUCUACUGGGUUACUCUAA	0.105 ± 0.017
CUUAAGGUGUGGAUCUACUCGGUUACCUAA	0.0184 ± 0.0089
CUUUUCCUCUGGACUCUACUGGGUUACCUAA	0.186 ± 0.023
CUUAAGGACUGGAACUACUGGGUUACCUUA	0.0308 ± 0.028
CUUAAGGUCUGGAUCUACUGCGUUACCUUA	0.138 ± 0.024
CUUAAGCUCUGGAUACUACUGGGUUACCUAA	0.0649 ± 0.015
CUAUUCCUCUGGAUCUACUCGGUUACGUAA	0.107 ± 0.042
CUUUUCCUACUGGAUCUACUGGGUUACCUAA	0.532 ± 0.051
GUAUUCCUCUGGAACUACUGGGUUACCUAA	0.0564 ± 0.03
CUAUUCCUCUGGAACUACUGGGUUUCCUAA	0.337 ± 0.12
CUUAAGGUCUGGAUCUACUGGGUUGCCUAA	0.218 ± 0.023
CUAUUCCUCUGGAUCGUACUGGGUUACCUAA	0.0062 ± 0.0047
CUUAAGCUCUGGACUACUGGGUUACCUAA	0.0641 ± 0.011
CUUUUCCUCAGGAUCUACUCGGUUACCUAA	0.0989 ± 0.022
CUAUUCCUCUGGAUCUACUGGGAUACCUAA	0.286 ± 0.035
GAAUUCCUCUGCAUCUACUGGGUUACCAAA	0.374 ± 0.044
CUUAAGCUCUGGAUCAACUGGGUUACCUUA	0.0594 ± 0.0094
CUUAACCUCUGGAUCAACUGGGUUACCAAA	0.191 ± 0.032
GAAUUCCUCUGGAAGAACUGGGUUACCUAA	0.147 ± 0.035
CUUAAGGUCUGGUUCUACUGGGAUACCUAA	0.0504 ± 0.011
GAAUUACUCUGGAUCUACUGGGUUACCUAA	0.0507 ± 0.02

Sequence	pre-steady-state target cleavage rate
CUUAUCGUCUGGAUCUACUCGGUUACCUAA	0.0341 ± 0.023
CUUAUCCUCUGGAUCUACUGGGAUACCUAA	0.302 ± 0.039
CUUAAGCUCUGGAUCUACUGGGUUACCAA	0.1 ± 0.012
CUUAUCCUCAGGAUCUACUGGGUUUCCUAA	0.353 ± 0.062
GAAUUCCUCUGGAUCAACUGGGUUAGCUAA	0.306 ± 0.039
CUUAAGGAGUGGUUCUAGUGGGUUACCUAA	0.00357 ± 0.0023
CAAUUCCUCUGGUUCUACAGGGUUACCUAA	0.424 ± 0.037
CUAUGUCCUCUGGAUCUACUGGGUUACCUAA	0.0967 ± 0.026
CUUAUCCUCUGGUUCUUCUGGGUUACCUAA	0.308 ± 0.032
CUUAAGGUCUGGAUCUACUGGGUUACUCUAA	0.131 ± 0.032
CUUAUCCUCUGGAUCUACUGGGUUACCUUA	0.342 ± 0.056
CUUAAGGUCUGGAUCUACUGGGUUACCUCA	0.198 ± 0.035
CUUAUCCACUGGAUCUACUGGGUUACCUAA	0.495 ± 0.043
GAAUUCCUGUGCAUCUACUGGGUUACCUAA	0.435 ± 0.029
CUUAACGUCUCGAUCUACUGGGUUACCUAA	0.357 ± 0.041
CUUUUCCUCUGGAACUACUGGGUUACCAAA	0.19 ± 0.034
GAAUUCCUCUGGAUCUACUCGGUUACCAAA	0.147 ± 0.036
CUUAACCUGUCGAUCUACUGGGUUACCUAA	0.367 ± 0.036
CUUAUCCUCUGGAUGUACUGGGUUACCAAA	0.329 ± 0.054
CUUAACCUCUGGAUCUACUCGCUUACCUAA	0.00558 ± 0.0032
CUUAACCUCUGCAUCUACUGCGUUACCUAA	0.458 ± 0.041
CUAUUCCUCUGGAACUACUGCGUUACCUAA	0.281 ± 0.038
CUUAUCCUCUGGAACUACUGGGUUUCCUAA	0.144 ± 0.046
CUUAAGCUCUGGAUCUACUGGGUUACCAUA	0.157 ± 0.025
CUUAAGGUCUCGAACUACUGGGUUACCUAA	0.0183 ± 0.014

Sequence	pre-steady-state target cleavage rate
CUUAAGGAGACCUAGUACUGGCGUUACCUAA	0.00873 ± 0.0013
CUUAUCCUCUGCAUCUACUGGGUUUCCUAA	0.0491 ± 0.015
CUUAAGCUCUGGAUCAACUCGGUUACCUAA	0.0285 ± 0.011
GAAUUCCUCUCGAUCUACUGGGUUACCUUA	0.629 ± 0.069
CUAUUCCUCUAGGAUCUACUGGGUUACCUAA	0.278 ± 0.041
CUUUUCCUCUCGAUCUACUGGGUUUCCUAA	0.509 ± 0.058
CUUAAGGUCUCGAUCUACUGGGUUACCUAA	0.216 ± 0.024
CUUAAGGAGAGGAUCUACUGGCGUUACCUAA	0.00502 ± 0.0044
CUUAAGGAGAAGAUCUACUGGGUUACCUAA	0.00849 ± 0.0034
CAAUUCCUCUGGAUCUACUGGGUUAGGUAA	0.114 ± 0.042
CUAUUCGUCUGCAUCUACUGGGUUACCUAA	0.523 ± 0.036
GAAUUCGUCUGGAACUACUGGGUUACCUAA	0.456 ± 0.046
CUUAACCUCUGGAUCAUCUGGGUUACCUAA	0.155 ± 0.013
CUUAUCGUCUGGAUCUACUGGGUUACCUAA	0.344 ± 0.053
CUUAAGGACUGGAUCUACUGGGUUUACCUAA	0.123 ± 0.059
CUUAAGGAGACCUAGAUCUGGGUUACGAAA	< 0.0001
CUUAAGGUCUGGUAUCUACUGGGUUACCUAA	0.157 ± 0.02
CUUAUCCUCUGGAUCUACUGGCGUUACCUAA	0.00393 ± 0.003
CUAUUCCUCACGAUCUACUGGGUUACCUAA	0.659 ± 0.042
CUUUUCCUCUCGAUCUACUGGGUUAGCUAA	0.362 ± 0.038
GAUAUCCUCUGGAUCUACUGGGUUACCUAA	0.121 ± 0.037
CUUUUCCUCUGGAUCUACUGGGUAUGCUAA	0.0185 ± 0.0056
CUUAACCUCUGUGAUCUACUGGGUUACCUAA	0.25 ± 0.024
CAAAUCCUCUGGAUCUUCUGGGUUACCUAA	0.44 ± 0.056
CUUAAGGUCUGGAUCUACUGGGUUACACUAA	0.345 ± 0.043

Sequence	pre-steady-state target cleavage rate
CUUAACCUCUCGAUCUACAGGGUUACCUAA	0.293 ± 0.018
CUUAAGGAGUGGAUCUACUGGGUUACAUAA	0.354 ± 0.052
CUUUUCCUCUGGAUCUACUGGGAUAGCUAA	0.14 ± 0.034
CUUAAGGAGAGGAUCUACUGGGUUACCGUAA	0.00436 ± 0.0037
CUUAAGGUCUGCAUCUACUGGGUAACCUAA	0.0258 ± 0.023
CUUAAGGUCUGAGAUCUACUGGGUUACCUAA	0.227 ± 0.029
CUAUUCCUCUGCAUCUACUGGGUUUCCUAA	0.332 ± 0.11
CUUUUCCUCUGGAUCUACUGGGUUAGCUUA	0.199 ± 0.045
CAAUUCCUCUGGAUCCACUGGGUUACCUAA	0.362 ± 0.051
CUUAAGCUCUGGAUCUACUGGGUUACGUUA	0.198 ± 0.025
CUUUUCCUCUGGAUCUACUGGCUUACCUUA	0.0532 ± 0.011
GAAUUCCUCAGGAUCUACUGGGUUAGCUAA	0.301 ± 0.032
CUUAAGCUCUGGAUCAUACUGGGUUACCUAA	0.00474 ± 0.0033
CUUAACCUGACGAUCUACUGGGUUACCUAA	0.0514 ± 0.015
GAAUUCCUGUGGAUCUACUGGGUUACCUAA	0.367 ± 0.043
CAAUUCCUGUGGAUCUACUGGGUUACGUAA	0.428 ± 0.075
CUUAUCCUCUGGAUCUACUCCGUUACCUAA	0.021 ± 0.009
CAAAUCCUCUGGAUCUAGUGGGUUACCUAA	0.195 ± 0.025
CAAUUCCUGUGGUUCUACUGGGUUACCUAA	0.46 ± 0.034
CUUAAGCUCUGCGAUCUACUGGGUUACCUAA	0.151 ± 0.025
CUUAUGCUCAGGAUCUACUGGGUUACCUAA	0.368 ± 0.038
CUUAUCCUCUGGAUCUACUGGGUGACCUAA	0.296 ± 0.032
GAAUUCCACUGCAUCUACUGGGUUACCUAA	0.574 ± 0.037
CUUAAGGAGUGGAUCUACUGGGUUACCUUAA	0.0734 ± 0.018
CAAUUCCUCUGGAACUACUGGCUUACCUAA	0.161 ± 0.023

Sequence	pre-steady-state target cleavage rate
CUAUUCCACUGGAUCUUCUGGGUUACCUAA	0.489 ± 0.07
CAAUUCCUCUGGAUCAACUGGGUUAGCUAA	0.177 ± 0.049
GAAUUCCUCUGGAUCUACAGCGUUACCUAA	0.152 ± 0.02
CUUAACCUCUGGAUCUACUGCGUUUCCUAA	0.0654 ± 0.013
CUUAAGCUCUGGAUCUACAGGCUUACCUAA	0.0352 ± 0.0085
GAAUUCCUCUGGUAUCUACUGGGUUACCUAA	0.484 ± 0.091
CUUAUCCUCUGGAUCUUCUCGGUUACCUAA	0.0624 ± 0.011
CUAAUCCUCUGGAUCUACUGGGAUACCUAA	0.274 ± 0.029
CAAUUCCACUGGAUCUACUGGCUUACCUAA	0.0613 ± 0.019
GAAUUCCUCUGGAUCUACUGGGUUACCUCAA	0.35 ± 0.061
CUUAAGGAGACCUUCUUCUGCGUUACCUAA	0.00449 ± 0.0027
CUUUUCCUCUGGAUCAACUGGGAUACCUAA	0.176 ± 0.023
CUUAAGCUCUGGAUCUACUGGAUUACCUAA	0.196 ± 0.025
GAAUACCUGUGGAUCUACUGGGUUACCUAA	0.301 ± 0.058
CUUAUCCUCUGGAUCUACUGGGAUACCAAA	0.274 ± 0.075
CUUAUCCUCUGGAUCUACUGGGUUACCAA	0.488 ± 0.086
CAAUUCCUCUGGAUCUACUGGGUUCCUAA	0.00946 ± 0.0064
CAAUUCGUCUGGAUCUACUGGGUUAGCUAA	0.192 ± 0.051
CUAUUCCUACUGGAUCUACUGGGUUACCUAA	0.544 ± 0.065
CUUAUCCUCUCGAUCUACUGGGAUACCUAA	0.408 ± 0.032
CUUUUCCUCUGCAUCUACUGGGUUAGCUAA	0.202 ± 0.022
CAAUAGCUCUGGAUCUACUGGGUUACCUAA	0.144 ± 0.034
CUUAAGCUGUGGAUCUACUGGGUUACCUUA	0.144 ± 0.03
CUUAAGGUCUGGAUCUACUCCGUUACCUAA	0.01 ± 0.0088
CUAAUCCUCUGGAUCUACAGGGUUACCUAA	0.285 ± 0.025

Sequence	pre-steady-state target cleavage rate
CUUAAGGAGACCUAGAACUGGGUUACCAUA	< 0.0001
GAAUUGCUCUGCAUCUACUGGGUUACCUAA	0.135 ± 0.046
CUUAAGCUCAGGAACUACUGGGUUACCUAA	0.284 ± 0.024
CUUAAGGACUGGAUCAACUGCGUUACCUAA	0.0365 ± 0.033
CUUUUCCUCUGGAUCUACUCGGUUACCAAA	0.063 ± 0.016
CUUAAGGAGUGGAUCUACUGGGUUACCUGAA	0.0357 ± 0.012
CUUUUCCUCUGGAUCUACUGGGUCACCUAA	0.23 ± 0.041
CUUAAGGAGAGGACCUACUGGGUUACCUAA	0.0487 ± 0.011
CUAUUCCACUGGAUCUACUGGCUUACCUAA	0.0721 ± 0.015
CUUAUCCACUGGAUCUACUGGGUUACGUAA	0.458 ± 0.057
GAAUUCCUCUGGAUCUACUGGGUUACCUAAA	0.272 ± 0.043
GAAUUCGUCUGGUUCUACUGGGUUACCUAA	0.549 ± 0.062
CUUAAGCUCUGGAUCUACUGGGUUAGCAAA	0.0893 ± 0.019
GAAUACCUCUGGAACUACUGGGUUACCUAA	0.235 ± 0.042
CAAUUGCUCUGGAUCUACUGGGUUAGCUAA	0.346 ± 0.07
CUAUUCCUCUGGAUCUACUGGGUCACCUAA	0.216 ± 0.045
CUUAUCCUCUGGAUCUACUGGCUUACCUAA	0.114 ± 0.019
CUUAAGGAGAGGAUCAACUGGGUUACCUAA	0.00378 ± 0.0032
CUUAAGCACUGGAUCUACUGGGUAACCUAA	0.102 ± 0.015
CAAUUCCUCUGGAUGUACUGGGUUACCUUA	0.505 ± 0.05
